# Source: the supplement of paper PMC8728848
# This is one part of the list.
# B1: Pwp5 ND (Candida glabrata) (protein)
# chain: MGSSHHHHHHSSGLVPRGSHMASANPVPLTNVCYFPEEYPRQAGFRAITAGLASTILQGSVDELLNYSGLSSLTTQQTTTTTPNFQLPTLPLPTNVYGLTVVPLYLLVQLQGYFVPPVSGQYTFSLENTNDAAIIFFGNPSAFPCGDLSAWPQASADDITVTDGTFPSRTLFLKAGVAYPMRISYYNSLGSGNLAVSFTDPGGTKRTNWNGYIWRYNSCSTCTYT
# Assays:
# Assay in all cases: glycan array binding signal (z-score within array); higher = stronger binding
# Details in all cases: glycan notation: IUPAC condensed, linker removed
# [1] = target: Fuc(a1-2)Gal6S(b1-3)GlcNAc6S
# Procedure, shortened: (§1)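 Glycan array data were curated from 3228 arrays in the Consortium for Functional Glycomics database and kept only where the protein sequence was available. Glycan names were converted to IUPAC-condensed notation, and columns mapping to the same glycan were averaged. The binding signal is a within-array Z-score, averaged across arrays of the same protein sequence at different concentrations or buffers and across linkers. Negative Z-scores can be read as non-binding.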
# [2] = target: Fuc(a1-2)Gal6S(b1-4)Glc
# Procedure, shortened: as §1
# [3] = target: Fuc(a1-2)Gal6S(b1-4)Glc6S
# Procedure, shortened: as §1
# [4] = target: Fuc(a1-2)[Gal(a1-3)]Gal
# Procedure, shortened: as §1
# [5] = target: Fuc(a1-2)[Gal(a1-3)]Gal(b1-3)GalNAc
# Procedure, shortened: as §1
# [6] = target: Fuc(a1-2)[Gal(a1-3)]Gal(b1-3)GalNAc(b1-3)Gal(a1-4)Gal(b1-4)Glc
# Procedure, shortened: as §1
# [7] = target: Fuc(a1-2)[Gal(a1-3)]Gal(b1-3)GlcNAc
# Procedure, shortened: as §1
# [8] = target: Fuc(a1-2)[Gal(a1-3)]Gal(b1-3)GlcNAc(b1-2)Man(a1-3)[Fuc(a1-2)[Gal(a1-3)]Gal(b1-3)GlcNAc(b1-2)Man(a1-6)]Man(b1-4)GlcNAc(b1-4)GlcNAc
# Procedure, shortened: as §1
# [9] = target: Fuc(a1-2)[Gal(a1-3)]Gal(b1-3)GlcNAc(b1-2)Man(a1-3)[Fuc(a1-2)[Gal(a1-3)]Gal(b1-3)GlcNAc(b1-2)Man(a1-6)]Man(b1-4)GlcNAc(b1-4)[Fuc(a1-6)]GlcNAc
# Procedure, shortened: as §1
# [10] = target: Fuc(a1-2)[Gal(a1-3)]Gal(b1-3)GlcNAc(b1-3)GalNAc
# Procedure, shortened: as §1
# [11] = target: Fuc(a1-2)[Gal(a1-3)]Gal(b1-3)GlcNAc(b1-6)GalNAc
# Procedure, shortened: as §1
# [12] = target: Fuc(a1-2)[Gal(a1-3)]Gal(b1-4)Glc
# Procedure, shortened: as §1
# [13] = target: Fuc(a1-2)[Gal(a1-3)]Gal(b1-4)GlcNAc
# Procedure, shortened: as §1
# [14] = target: Fuc(a1-2)[Gal(a1-3)]Gal(b1-4)GlcNAc(b1-2)Man
# Procedure, shortened: as §1
# [15] = target: Fuc(a1-2)[Gal(a1-3)]Gal(b1-4)GlcNAc(b1-2)Man(a1-3)[Fuc(a1-2)[Gal(a1-3)]Gal(b1-4)GlcNAc(b1-2)Man(a1-6)]Man(b1-4)GlcNAc(b1-4)GlcNAc
# Procedure, shortened: as §1
# [16] = target: Fuc(a1-2)[Gal(a1-3)]Gal(b1-4)GlcNAc(b1-2)Man(a1-3)[Fuc(a1-2)[Gal(a1-3)]Gal(b1-4)GlcNAc(b1-2)Man(a1-6)]Man(b1-4)GlcNAc(b1-4)[Fuc(a1-6)]GlcNAc
# Procedure, shortened: as §1
# [17] = target: Fuc(a1-2)[Gal(a1-3)]Gal(b1-4)GlcNAc(b1-3)GalNAc
# Procedure, shortened: as §1
# [18] = target: Fuc(a1-2)[Gal(a1-3)]Gal(b1-4)GlcNAc(b1-3)[Fuc(a1-2)[Gal(a1-3)]Gal(b1-4)GlcNAc(b1-6)]GalNAc
# Procedure, shortened: as §1
# [19] = target: Fuc(a1-2)[Gal(a1-3)]Gal(b1-4)GlcNAc(b1-6)GalNAc
# Procedure, shortened: as §1
# [20] = target: Fuc(a1-2)[Gal(a1-3)]Gal(b1-4)[Fuc(a1-3)]Glc
# Procedure, shortened: as §1
# [21] = target: Fuc(a1-2)[Gal(a1-3)]Gal(b1-4)[Fuc(a1-3)]GlcNAc
# Procedure, shortened: as §1
# [22] = target: Fuc(a1-2)[Gal(a1-3)]Gal(b1-4)[Fuc(a1-3)]GlcNAc(b1-3)GalNAc
# Procedure, shortened: as §1
# [23] = target: Fuc(a1-2)[Gal(a1-4)]Gal(b1-4)GlcNAc
# Procedure, shortened: as §1
# [24] = target: Fuc(a1-2)[GalNAc(a1-3)]Gal
# Procedure, shortened: as §1
# [25] = target: Fuc(a1-2)[GalNAc(a1-3)]Gal(b1-3)GalNAc(a1-3)[Fuc(a1-2)]Gal(b1-4)GlcNAc
# Procedure, shortened: as §1
# [26] = target: Fuc(a1-2)[GalNAc(a1-3)]Gal(b1-3)GalNAc(b1-3)Gal(a1-4)Gal(b1-4)Glc
# Procedure, shortened: as §1
# [27] = target: Fuc(a1-2)[GalNAc(a1-3)]Gal(b1-3)GlcNAc
# Procedure, shortened: as §1
# [28] = target: Fuc(a1-2)[GalNAc(a1-3)]Gal(b1-3)GlcNAc(b1-2)Man(a1-3)[Fuc(a1-2)[GalNAc(a1-3)]Gal(b1-3)GlcNAc(b1-2)Man(a1-6)]Man(b1-4)GlcNAc(b1-4)GlcNAc
# Procedure, shortened: as §1
# [29] = target: Fuc(a1-2)[GalNAc(a1-3)]Gal(b1-3)GlcNAc(b1-2)Man(a1-3)[Fuc(a1-2)[GalNAc(a1-3)]Gal(b1-3)GlcNAc(b1-2)Man(a1-6)]Man(b1-4)GlcNAc(b1-4)[Fuc(a1-6)]GlcNAc
# Procedure, shortened: as §1
# [30] = target: Fuc(a1-2)[GalNAc(a1-3)]Gal(b1-3)GlcNAc(b1-3)GalNAc
# Procedure, shortened: as §1
# [31] = target: Fuc(a1-2)[GalNAc(a1-3)]Gal(b1-3)GlcNAc(b1-6)GalNAc
# Procedure, shortened: as §1
# [32] = target: Fuc(a1-2)[GalNAc(a1-3)]Gal(b1-4)Glc
# Procedure, shortened: as §1
# [33] = target: Fuc(a1-2)[GalNAc(a1-3)]Gal(b1-4)GlcNAc
# Procedure, shortened: as §1
# [34] = target: Fuc(a1-2)[GalNAc(a1-3)]Gal(b1-4)GlcNAc(b1-2)Man
# Procedure, shortened: as §1
# [35] = target: Fuc(a1-2)[GalNAc(a1-3)]Gal(b1-4)GlcNAc(b1-2)Man(a1-3)[Fuc(a1-2)[GalNAc(a1-3)]Gal(b1-4)GlcNAc(b1-2)Man(a1-6)]Man(b1-4)GlcNAc(b1-4)GlcNAc
# Procedure, shortened: as §1
# [36] = target: Fuc(a1-2)[GalNAc(a1-3)]Gal(b1-4)GlcNAc(b1-2)Man(a1-3)[Fuc(a1-2)[GalNAc(a1-3)]Gal(b1-4)GlcNAc(b1-2)Man(a1-6)]Man(b1-4)GlcNAc(b1-4)[Fuc(a1-6)]GlcNAc
# Procedure, shortened: as §1
# [37] = target: Fuc(a1-2)[GalNAc(a1-3)]Gal(b1-4)GlcNAc(b1-3)Gal(b1-4)GlcNAc
# Procedure, shortened: as §1
# [38] = target: Fuc(a1-2)[GalNAc(a1-3)]Gal(b1-4)GlcNAc(b1-3)Gal(b1-4)GlcNAc(b1-3)Gal(b1-4)GlcNAc
# Procedure, shortened: as §1
# [39] = target: Fuc(a1-2)[GalNAc(a1-3)]Gal(b1-4)GlcNAc(b1-3)GalNAc
# Procedure, shortened: as §1
# [40] = target: Fuc(a1-2)[GalNAc(a1-3)]Gal(b1-4)GlcNAc(b1-3)[Fuc(a1-2)[GalNAc(a1-3)]Gal(b1-4)GlcNAc(b1-6)]GalNAc
# Procedure, shortened: as §1
# [41] = target: Fuc(a1-2)[GalNAc(a1-3)]Gal(b1-4)GlcNAc(b1-6)GalNAc
# Procedure, shortened: as §1
# [42] = target: Fuc(a1-2)[GalNAc(a1-3)]Gal(b1-4)[Fuc(a1-3)]GlcNAc
# Procedure, shortened: as §1
# [43] = target: Fuc(a1-2)[GalNAc(a1-3)]Gal(b1-4)[Fuc(a1-3)]GlcNAc(b1-3)GalNAc
# Procedure, shortened: as §1
# [44] = target: Fuc(a1-2)[GalNAc(a1-4)]Gal(b1-4)GlcNAc
# Procedure, shortened: as §1
# [45] = target: Fuc(a1-2)[GalNAc(b1-3)]Gal
# Procedure, shortened: as §1
binder,measurement,setting,value
B1,glycan array binding signal (z-score),[1],-0.05
same,glycan array binding signal (z-score),[2],-0.301
same,glycan array binding signal (z-score),[3],2.41
same,glycan array binding signal (z-score),[4],0.713
same,glycan array binding signal (z-score),[5],-0.5
same,glycan array binding signal (z-score),[6],1.64
same,glycan array binding signal (z-score),[7],-0.191
same,glycan array binding signal (z-score),[8],-0.273
same,glycan array binding signal (z-score),[9],0.055
same,glycan array binding signal (z-score),[10],-0.472
same,glycan array binding signal (z-score),[11],0.623
same,glycan array binding signal (z-score),[12],-0.483
same,glycan array binding signal (z-score),[13],2.52
same,glycan array binding signal (z-score),[14],-0.169
same,glycan array binding signal (z-score),[15],-0.49
same,glycan array binding signal (z-score),[16],0.284
same,glycan array binding signal (z-score),[17],-0.32
same,glycan array binding signal (z-score),[18],-0.58
same,glycan array binding signal (z-score),[19],0.176
same,glycan array binding signal (z-score),[20],-0.527
same,glycan array binding signal (z-score),[21],0.754
same,glycan array binding signal (z-score),[22],0.256
same,glycan array binding signal (z-score),[23],-0.594
same,glycan array binding signal (z-score),[24],-0.293
same,glycan array binding signal (z-score),[25],-0.621
same,glycan array binding signal (z-score),[26],-0.583
same,glycan array binding signal (z-score),[27],-0.482
same,glycan array binding signal (z-score),[28],-0.485
same,glycan array binding signal (z-score),[29],-0.533
same,glycan array binding signal (z-score),[30],0.59
same,glycan array binding signal (z-score),[31],-0.27
same,glycan array binding signal (z-score),[32],0.002
same,glycan array binding signal (z-score),[33],-0.391
same,glycan array binding signal (z-score),[34],-0.569
same,glycan array binding signal (z-score),[35],0.049
same,glycan array binding signal (z-score),[36],-0.369
same,glycan array binding signal (z-score),[37],-0.244
same,glycan array binding signal (z-score),[38],-0.616
same,glycan array binding signal (z-score),[39],0.252
same,glycan array binding signal (z-score),[40],-0.328
same,glycan array binding signal (z-score),[41],-0.11
same,glycan array binding signal (z-score),[42],-0.827
same,glycan array binding signal (z-score),[43],-0.156
same,glycan array binding signal (z-score),[44],-0.172
same,glycan array binding signal (z-score),[45],-0.624
